Among all 310,000 compounds or so, about 2,200 (0.71%) showed an effect of 50% or more. The effect is printed as a negative number. This is one part of the list.
target: human ether-à-go-go-related gene (hERG) potassium channel (human, UniProt Q12809); test: primary screen, population patch clamp on CHO cells stably expressing hERG
Sequence (Q12809 whole entry, looked up): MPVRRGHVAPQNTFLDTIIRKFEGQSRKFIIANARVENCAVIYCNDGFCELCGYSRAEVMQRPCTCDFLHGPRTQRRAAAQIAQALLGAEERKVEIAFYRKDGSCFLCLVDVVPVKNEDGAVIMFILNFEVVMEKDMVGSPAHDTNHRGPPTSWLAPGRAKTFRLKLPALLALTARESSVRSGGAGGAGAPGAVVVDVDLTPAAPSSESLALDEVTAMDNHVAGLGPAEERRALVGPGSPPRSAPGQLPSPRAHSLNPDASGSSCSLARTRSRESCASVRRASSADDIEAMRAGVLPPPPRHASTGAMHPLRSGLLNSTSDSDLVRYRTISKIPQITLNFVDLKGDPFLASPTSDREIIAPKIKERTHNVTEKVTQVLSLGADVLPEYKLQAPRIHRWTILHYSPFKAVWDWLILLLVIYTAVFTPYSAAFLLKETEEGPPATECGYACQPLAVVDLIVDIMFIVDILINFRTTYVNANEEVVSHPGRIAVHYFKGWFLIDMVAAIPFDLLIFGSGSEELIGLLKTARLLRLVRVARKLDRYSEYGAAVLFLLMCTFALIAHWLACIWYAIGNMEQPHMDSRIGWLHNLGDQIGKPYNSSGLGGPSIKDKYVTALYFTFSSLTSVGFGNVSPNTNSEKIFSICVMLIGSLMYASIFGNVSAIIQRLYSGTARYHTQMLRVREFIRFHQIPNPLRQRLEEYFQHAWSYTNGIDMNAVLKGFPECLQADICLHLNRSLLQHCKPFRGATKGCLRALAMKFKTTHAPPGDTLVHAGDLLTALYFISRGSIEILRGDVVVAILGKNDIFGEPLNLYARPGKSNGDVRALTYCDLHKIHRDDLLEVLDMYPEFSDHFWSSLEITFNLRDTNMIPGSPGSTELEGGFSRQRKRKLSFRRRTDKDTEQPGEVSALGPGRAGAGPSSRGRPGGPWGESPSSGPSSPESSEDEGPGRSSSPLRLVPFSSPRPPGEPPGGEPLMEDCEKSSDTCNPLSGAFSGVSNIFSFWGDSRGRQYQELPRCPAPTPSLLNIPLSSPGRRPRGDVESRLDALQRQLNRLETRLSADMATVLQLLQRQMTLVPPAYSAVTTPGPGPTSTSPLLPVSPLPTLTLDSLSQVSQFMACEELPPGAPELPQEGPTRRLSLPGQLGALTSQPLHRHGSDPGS

Structure (SMILES)	hERG current change (%, negative = inhibition) at 1uM
CCOC(=O)c1c(NC(=O)CN2CCOCC2)sc2c1CC(C)(C)OC2	11.7%
Cc1ccccc1NC(=O)CSc1nc(O)cc(=O)n1C	-16.9%
CN(Cc1cnccn1)Cc1nc(Cc2ccccc2Cl)no1	9.75%
O=C(CCc1ccccn1)N1CCCC(N2CCN(c3cccc(C(F)(F)F)c3)CC2)C1 (centres unmarked)	-16.2%
O=C(c1cc(-c2ccccc2)on1)N1CCN(c2ccccc2)CC1	13.5%
Cc1cccc(NC(=O)CSCC(=O)N2CCCc3ccccc32)c1	6.82%
CCCCN(C(=O)CSc1nn(-c2ccc(F)cc2)c(=S)s1)c1c(N)n(CCCC)c(=O)[nH]c1=O	8.15%
O=C(CNC(=O)c1ccco1)OCC(=O)c1ccc([N+](=O)[O-])cc1	14.9%
CCOc1ccccc1OCC(=O)NNC(=S)NC1CCCCC1	2.31%
Cc1ccc(C)c(CSC2=NCCN2C(=O)Cc2ccc([N+](=O)[O-])cc2)c1	11.1%
CN1CCN(/N=C/c2ccc(-c3ccc([N+](=O)[O-])cc3Cl)o2)CC1	-9.76%
CC1(NC(=O)CSc2nnc(-c3ccco3)n2Cc2ccccc2)CCS(=O)(=O)C1 (centres unmarked)	9.18%
C=CCn1c2ccccc2c2nnc(SCC(=O)Nc3cc(C)on3)nc21	3.22%
COc1ccccc1NC(=O)Cn1c(=O)sc2ccccc21	-4.2%
CCOC(=O)C1(CCc2ccccc2)CCN(Cc2cccc3c2OCO3)CC1	-63.7%
CC(C)Cc1nnc(NC(=O)CCC(=O)NC2CCCCCC2)s1	-14.3%
Cc1ccc(CN2CCSc3ccc(C(=O)N4CCN(c5ncccn5)CC4)cc32)cc1	10.8%
CCOC(=O)[C@H]1[C@H]2COc3ccc(OC)cc3[C@@H]2N2C(=O)c3ccccc3NC(=O)[C@@]12C	6.02%
CC(=O)N(Cc1cc(=O)[nH]c2ccccc12)c1ccccc1	13.3%
CC1(C)N(O)CC(c2cccs2)=[N+]1[O-]	12.9%
CCc1ccc(NC(=O)N(CCN(C)C)C(C)c2cccnc2)cc1 (centres unmarked)	6.09%
Cc1nnc(SCc2ccc(CSc3nnc(C)c(=O)[nH]3)cc2)[nH]c1=O	12%

Structure (SMILES)	hERG current change (%, negative = inhibition) at 1uM
CC1(c2ccccc2)NC(=O)N(CC(=O)Nc2cc(S(=O)(=O)N3CCOCC3)ccc2Cl)C1=O (centres unmarked)	4.96%
COc1ccc(CNc2oc(-c3cccc4ccccc34)nc2C#N)cc1	11.3%
CC1CCN(CC(=O)c2ccc3c(c2)OCCO3)CC1.O=C(O)C(=O)O	8.81%
Cc1ccc(-c2cc(-c3nnc(SCC(=O)N(C)CCC#N)n3N)c3ccccc3n2)cc1	9.95%
Cc1ccc(CCC(=O)Nc2ccc(Br)cc2)o1	7.8%
Cc1ccc(Cl)c2c(N=Nc3ccccc3)c(O)[nH]c12	11%
CCCCCc1cc(=O)oc2c(C(CCN3CCCC(C)C3)c3cc(OC)c(OC)c(OC)c3)c(OC)cc(OC)c12 (centres unmarked)	14.7%
COC(=O)c1cccc(N=Cc2c(O)n(Cc3ccc(F)cc3)c(=O)[nH]c2=O)c1	15.3%
O=C(NCCSc1c[nH]c2ccccc12)c1ccc(Br)o1	10.2%
Cc1cccc(Nc2ccncc2S(=O)(=O)NC(=O)NC(C)C)c1	10%
O=C(NCC(c1ccco1)N1CCOCC1)c1ccc(F)cc1 (centres unmarked)	5.48%
Cc1ccccc1-c1ncc(CN2CCN(C3CCCC3)C(CCO)C2)cn1 (centres unmarked)	7.16%
O=C(NC1CC2CCCC(C1)N2Cc1ccccc1)c1cccc(Cl)c1 (centres unmarked)	-12.1%
O=c1c(-c2ccc(O)cc2)coc2cc(OC3OC(CO)C(O)C(O)C3O)cc(O)c12 (centres unmarked)	7.24%
Cc1ccc(C)c(Cn2c(CO)nc3ccccc32)c1	0.782%
CC(NC(=O)c1cccc(F)c1)C1CC2CCC1C2 (centres unmarked)	13.7%
CCOc1ccc(/C=N/NC(=O)c2[nH]ncc2Br)c(O)c1	5.05%
Cc1ccccc1N1CCN(C2=NC(=O)/C(=C\c3cccs3)S2)CC1	9.44%
NNC(=O)c1cc2sccc2s1	14%
C=CCN1C(=O)C2C(C(=O)NC)C3(C)C=CC2(O3)C1C(=O)NCc1ccc(OC)cc1 (centres unmarked)	9.93%
Cc1ccc(N2C(=O)C(CN3CCCC3)C2c2ccccc2)cc1 (centres unmarked)	-70.6%
Cc1ccc(CN2CCN(Cc3cccc(C)n3)CC2CCO)cc1 (centres unmarked)	-2.38%

From paper PMC4336329 (PLoS ONE, 2015)
